Reference: the supplement of paper PMC3334620
Whole data set: some 33,000 sequences, median “E-score (-0.5 to 0.5)” near -0.021, cut for the highest 2% near 0.32. The list shows a part of the results.

Target: T1, Zap1 (UniProt P47043)
T1 sequence: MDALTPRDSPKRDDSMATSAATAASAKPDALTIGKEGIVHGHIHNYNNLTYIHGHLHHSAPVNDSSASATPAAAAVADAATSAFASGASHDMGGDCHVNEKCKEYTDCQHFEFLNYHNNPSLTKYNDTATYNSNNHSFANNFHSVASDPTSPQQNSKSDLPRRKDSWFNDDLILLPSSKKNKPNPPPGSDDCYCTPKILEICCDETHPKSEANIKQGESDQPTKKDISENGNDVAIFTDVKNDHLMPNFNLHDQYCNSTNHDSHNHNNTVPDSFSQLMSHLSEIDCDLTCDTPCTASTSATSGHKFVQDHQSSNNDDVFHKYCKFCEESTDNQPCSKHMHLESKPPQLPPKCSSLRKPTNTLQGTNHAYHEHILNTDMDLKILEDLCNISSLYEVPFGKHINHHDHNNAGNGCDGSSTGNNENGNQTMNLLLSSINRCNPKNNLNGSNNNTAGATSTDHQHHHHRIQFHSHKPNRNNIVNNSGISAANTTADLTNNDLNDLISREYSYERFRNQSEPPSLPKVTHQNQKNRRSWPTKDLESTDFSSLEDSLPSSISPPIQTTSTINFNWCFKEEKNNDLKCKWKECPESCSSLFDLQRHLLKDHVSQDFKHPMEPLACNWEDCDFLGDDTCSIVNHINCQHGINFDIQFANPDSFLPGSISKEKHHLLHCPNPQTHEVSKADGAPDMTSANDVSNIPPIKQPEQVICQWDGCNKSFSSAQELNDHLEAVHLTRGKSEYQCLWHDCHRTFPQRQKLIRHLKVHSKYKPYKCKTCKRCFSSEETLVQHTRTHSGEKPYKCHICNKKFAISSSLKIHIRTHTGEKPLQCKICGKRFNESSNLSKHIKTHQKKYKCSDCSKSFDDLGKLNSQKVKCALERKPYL
Assay: PBM E-score (8-mer binding enrichment) (E-score (-0.5 to 0.5)); higher = stronger / more preferred TF binding; most listed sequences are background and not binding sites
Conditions: protein concentration: 200 nM; construct: GST-full length
In short: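 Yeast transcription factors, full-length or as DNA-binding domains, were expressed with a GST tag using PURExpress in vitro transcription/translation. At about 100-200 nM they were applied to universal all-10-mer Agilent arrays, double-stranded by primer extension on fresh or once-stripped slides. Fluorescent anti-GST detected bound protein, and masliner normalised the scans. E-scores for ungapped eight-base words, pooled with reverse complements, came from the Universal PBM Analysis Suite.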

Sequence	PBM E-score
GCACGGAC	-0.0076
ACGTATTG	-0.135
TGCTTACA	-0.16
AGACCCCA	0.281
ACCGGAGG	-0.0907
ACAGAGGA	-0.0172
ATGAGACG	-0.135
TGAGCCCA	-0.0912
ACGGATCG	-0.261
AGACCCGC	-0.054
AGGATCGG	-0.212
GATCAGCA	-0.0439
TAAATCAA	0.165
GAAATCAA	-0.0268
CAGTTCGC	0.0483
AATAAAGC	-0.0617
CATATTGG	0.0442
CTTGGCGC	0.0977
CGATAGAA	0.0889
GTAGGAAA	0.0104
GCTCCGTA	-0.204
CATTCAAA	0.0938
AGCTCCCG	-0.274
ATATATAC	0.199
CACAGTCG	-0.0562

Sequence	PBM E-score
ATGCAACA	0.0505
AACCAGGG	0.215
TATATCCA	0.0483
AAAGCTGG	-0.144
GTGTCAAC	-0.121
AGAATTTG	0.142
GCCTATAA	0.0396
GCGGACAC	0.0715
AACCCAGC	0.147
GCCTCAGA	-0.0467
CAACCCCG	0.211
CGAACTCC	-0.121
AATTGTCT	0.0635
TACCGATA	0.102
CAATTTTA	0.114
AGGGTTGG	0.333
CGGCCCAG	-0.14
CCTCGACG	-0.117
ACCACTAG	0.218
ACCGTCAT	-0.0375
CGCTAGCG	-0.117
CAGGGGTA	0.286
AACCTTGT	0.229
TCTTCCCA	-0.0261
AAGAATGA	-0.0399

Sequence	PBM E-score
AAGATGCT	-0.274
GCGACAGC	-0.115
CCAATCCA	-0.0777
ACTCCAGC	-0.288
CCCGTCCG	-0.284
GACTCCCC	-0.236
AACCCCAC	0.344
GCGGCGTA	-0.174
CAAGCACG	-0.199
AACCCCAT	0.359
ACATGGCA	-0.201
ACATTGTG	-0.0522
ACGCGAAG	0.0536
AAACACGG	0.00614
AGAGGGGG	-0.319
AAACTACC	0.294
AGGAGTGA	-0.207
ATTAATTA	0.19
ACGTGGCC	-0.0219
CGTTTCGA	-0.097
CAACCCGA	0.355
CAGCCGGA	-0.0143
AATACTGC	-0.0187
TCGAATCA	-0.086
ACTCCTTA	0.0191

Sequence	PBM E-score
CATTCCTA	-0.0344
ACGGCACC	-0.164
GCCCACAA	0.147
AAGTATAA	0.134
AGCTCGAA	0.0884
TCGAGGCA	-0.121
CAATGGCG	-0.244
GTGCCGCA	-0.0717
TCATTCCA	-0.0602
GAAATGGC	-0.091
AAAAGCGC	-0.135
GATAAATC	-0.0377
ACGGGACT	-0.325
CAGTTACC	0.208
CGAGAGCC	-0.188
AACTAACC	0.333
ATTGTCAA	0.157
ACCTAAGT	0.185
CATAGAAG	-0.0579
CAGCGGTA	0.0887
TCCCTCCA	-0.134
ACGCCGCA	-0.214
AGCCTAGA	-0.126
AATTGACA	-0.0166
CGTAGGGC	-0.168

Sequence	PBM E-score
AGTTACGG	0.0975
AATGCGCA	0.0233
TGGAACAA	0.0799
CTTCGCAC	-0.0742
GTCTCATA	-0.0428
ACAAGAGC	-0.183
GTGCGTAA	0.0268
CAGACAGC	-0.0475
AATTCCTG	-0.124
ATGTATTG	0.0156
CAGGTATC	0.138
TCACCACA	0.17
ATTACAAA	0.113
AACAATAC	0.124
CATTTTTC	0.0692
AGACCCTA	0.298
CAAGCCAC	-0.144
ATTCAGCG	-0.0993
AAGTCTTC	-0.063
AAATACGC	-0.0673
AAATCCGC	-0.248
CGGCACAA	-0.0187
ACAATTCG	-0.0223
AGATGTTC	-0.158
GACCCACA	0.308

Sequence	PBM E-score
CCGCCCGA	-0.0384
ATACGAAA	0.173
ACCAGGGG	-0.0398
AAATCGAG	0.051
CGGCCTTC	0.135
CCATGTAC	0.0901
ACTAATAC	0.23
GGTTTGTA	0.119
CGCTGCAC	-0.174
CTGTTAAA	0.0123
GCCGTAAC	0.287
ATGGCATC	-0.183
GGAGCGAA	-0.175
TATTAAGA	0.0188
ATCTATTC	0.0436
GTATTTGA	0.0608
AGATTTCA	0.00329
CCTGTTCC	-0.128
ACGGGATG	-0.174
CGTCGCAC	-0.0967
CGGTACGC	-0.129
GGGTCACA	0.398
GGGCAGTA	-0.146
GAACCACA	0.102
CGCCATAA	0.0925

Sequence	PBM E-score
GAGAACAC	-0.079
TCGAAGCA	-0.224
ACCCAGAT	0.19
ATAAGTCC	-0.00375
GACGTGAC	-0.0566
CGGACGTC	-0.169
AGAATGTC	-0.128
TACGGACA	0.0932
ATCTTGTA	0.0449
TAAGCCAA	0.11
TACACGCA	-0.176
ACACAATA	0.192
GACAGTGA	-0.0563
GAAAGCGA	-0.0191
AACTGCTA	-0.0604
AGCCTCTG	-0.219
AACTAAGA	0.0908
ACATCCAT	-0.0784
GATCTAGA	0.0249
CAGGTGTC	-0.0194
CCCAAAGA	0.161
CATTATCA	0.0485
ACCGCTAA	0.247
AGACAATA	0.0476
AGCGAAAG	-0.0949

Sequence	PBM E-score
AATTTAAT	0.145
GCGAGAGC	-0.0306
GCAAATGA	-0.00579
CAAATGCA	0.00501
AATTTGCT	-0.0749
TAGTATGA	0.215
CGAAAGAG	-0.0292
CCGAGCCA	-0.0873
ATATTGGA	-0.014
TCAGGAAA	-0.0306
CTCGGTCA	0.00894
AAGTGATC	0.131
GATTACGC	0.0927
ACCCGGGG	0.289
TAGTGGGA	-0.179
CCTACGCC	-0.292
AGAGCGAG	-0.14
ACACACCA	0.137
GTAGACGA	-0.0824
ATCACGCC	-0.0547
ATAGAAGA	-0.083
GACCAACA	0.21
GCATCATA	0.039
ACATAGGT	0.296
GACGATAC	-0.0336

Sequence	PBM E-score
TCATAGAA	0.144
GAAAGTAC	0.109
ACACTTGA	-0.0766
CCACATAC	0.109
AGAGCCCC	-0.221
AACCACTA	0.369
GCTTAACC	0.327
GGACGGGA	-0.214
GAGTAAGA	-0.0163
ATCACGGC	0.0529
CGCTTTTA	0.129
GTTCCTGA	-0.0294
AATATGAT	0.239
AGTGACGC	-0.0868
ACGATCGA	-0.0556
AGTGCAGC	-0.109
CTAGAGGC	-0.0764
CCGTCTCG	-0.164
GTGCCGGA	-0.119
